SMILES strings stand for the structures.

The term melting point denotes the temperature of the solid-liquid transition. `CCOC(=O)C1=C(CC)Nc2n[nH]cc2C1c1cccc2nonc12` (stereo unspecified) registered a melting point of 196 °C.

The values above are taken from a melting point compilation (Tetko et al.; mined from patent text by program, amines drawn as free bases though some values may be those of a salt).
